# Earlier results, collected in paper PMC11006913.
# Where a chain is given by its changes, count along the chain named. Some of the results follow.
# Columns and labels:
# Details in all cases: PBM; conditions not shown; double strand, one strand shown; scale: upbm affinity estimate (log intensity, higher = more binding, comparable within an allelic series)
# [1] = target: HOXD13 I297V (Homo sapiens) (UniProt P35453)
# [2] = target: HOXD13 I322L (Homo sapiens) (UniProt P35453)
# [3] = target: HOXD13 N298S (Homo sapiens) (UniProt P35453)
# [4] = target: HOXD13 Q325K (Homo sapiens) (UniProt P35453)
# [5] = target: HOXD13 Q325R (Homo sapiens) (UniProt P35453)
# [6] = target: HOXD13 R306W (Homo sapiens) (UniProt P35453)
# [7] = target: HOXD13 S316C (Homo sapiens) (UniProt P35453)
# [8] = target: PROP1 R112Q (Homo sapiens) (UniProt O75360)
# [9] = target: PITX2 L100Q (Homo sapiens) (UniProt Q99697)
# [10] = target: PITX2 R108H (Homo sapiens) (UniProt Q99697)
# [11] = target: PITX2 R130W (Homo sapiens) (UniProt Q99697)
# [12] = target: PITX2 T114P (Homo sapiens) (UniProt Q99697)
# [13] = target: NKX2-5 K183E (Homo sapiens) (UniProt P52952)
# [14] = target: NKX2-5 R161P (Homo sapiens) (UniProt P52952)
# [15] = target: NKX2-5 R190C (Homo sapiens) (UniProt P52952)
# [16] = target: ISX (Homo sapiens) (UniProt Q2M1V0)
# [17] = target: ISX R83Q (Homo sapiens) (UniProt Q2M1V0)
# [18] = target: PROP1 R99Q (Homo sapiens) (UniProt O75360)
# [19] = target: T1, PBX4 (Homo sapiens) (UniProt Q9BYU1)
# T1 sequence: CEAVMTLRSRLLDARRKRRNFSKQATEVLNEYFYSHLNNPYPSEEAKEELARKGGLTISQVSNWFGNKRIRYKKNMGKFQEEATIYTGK
# [20] = target: T2, PBX4 R215Q (Homo sapiens) (UniProt Q9BYU1)
# T2 sequence: T1 sequence with R19Q
sequence,measurement,setting,value
CCTGCGAG [8-mer CCTGCGAG],binding signal,[1],9.46
same,binding signal,[2],9.37
same,binding signal,[3],9.4
same,binding signal,[4],9.59
same,binding signal,[5],9.47
same,binding signal,[6],9.42
same,binding signal,[7],9.54
TAACTATA [8-mer TAACTATA],binding signal,[1],11.7
same,binding signal,[2],11.3
same,binding signal,[3],11.8
same,binding signal,[4],11
same,binding signal,[5],11.2
same,binding signal,[6],11
same,binding signal,[7],11.4
same,binding signal,[8],11.9
ATTTATGA [8-mer ATTTATGA],binding signal,[1],12.6
same,binding signal,[2],11.4
same,binding signal,[3],12.9
same,binding signal,[4],11.1
same,binding signal,[5],12
same,binding signal,[6],12
same,binding signal,[7],12.6
CCCGGCAG [8-mer CCCGGCAG],binding signal,[1],9.53
same,binding signal,[2],9.59
same,binding signal,[3],9.51
same,binding signal,[4],9.63
same,binding signal,[5],9.5
same,binding signal,[6],9.39
same,binding signal,[7],9.41
same,binding signal,[9],8.35
same,binding signal,[10],8.06
same,binding signal,[11],7.89
same,binding signal,[12],8.06
CCTAGCGC [8-mer CCTAGCGC],binding signal,[1],9.47
same,binding signal,[2],9.52
same,binding signal,[3],9.37
same,binding signal,[4],9.26
same,binding signal,[5],9.26
same,binding signal,[6],9.37
same,binding signal,[7],9.37
same,binding signal,[13],10
same,binding signal,[14],10.1
same,binding signal,[15],10.1
GGAGGCAC [8-mer GGAGGCAC],binding signal,[1],9.49
same,binding signal,[2],9.38
same,binding signal,[3],9.49
same,binding signal,[4],9.31
same,binding signal,[5],9.49
same,binding signal,[6],9.52
same,binding signal,[7],9.58
TTAAAGAA [8-mer TTAAAGAA],binding signal,[1],10.9
same,binding signal,[2],11
same,binding signal,[3],11.1
same,binding signal,[4],10.8
same,binding signal,[5],10.9
same,binding signal,[7],10.8
CGGTACCG [8-mer CGGTACCG],binding signal,[1],9.29
same,binding signal,[2],9.36
same,binding signal,[3],9.21
same,binding signal,[4],9.13
same,binding signal,[5],9.36
same,binding signal,[6],9.3
same,binding signal,[7],9.29
same,binding signal,[16],9.78
same,binding signal,[17],9.8
same,binding signal,[9],8.26
same,binding signal,[10],7.99
same,binding signal,[11],7.94
same,binding signal,[12],8.07
same,binding signal,[8],10.9
same,binding signal,[18],10.9
CCACCGGG [8-mer CCACCGGG],binding signal,[1],9.5
same,binding signal,[2],9.43
same,binding signal,[3],9.47
same,binding signal,[4],9.67
same,binding signal,[5],9.45
same,binding signal,[6],9.46
same,binding signal,[7],9.54
GATTTTTA [8-mer GATTTTTA],binding signal,[1],11.4
same,binding signal,[2],10.9
same,binding signal,[3],11.3
same,binding signal,[4],11
same,binding signal,[5],11.2
same,binding signal,[7],11.1
GCTCCCCC [8-mer GCTCCCCC],binding signal,[1],9.37
same,binding signal,[2],9.24
same,binding signal,[3],9.4
same,binding signal,[4],9.39
same,binding signal,[5],9.12
same,binding signal,[6],9.17
same,binding signal,[7],9.29
same,binding signal,[16],9.55
same,binding signal,[17],9.6
same,binding signal,[9],8.22
same,binding signal,[10],7.93
same,binding signal,[11],7.71
same,binding signal,[12],7.95
AGTCGGCG [8-mer AGTCGGCG],binding signal,[1],9.55
same,binding signal,[2],9.52
same,binding signal,[3],9.47
same,binding signal,[4],9.56
same,binding signal,[5],9.51
same,binding signal,[6],9.54
same,binding signal,[7],9.59
same,binding signal,[8],10.9
same,binding signal,[18],11
CTGGGGCC [8-mer CTGGGGCC],binding signal,[1],9.5
same,binding signal,[2],9.44
same,binding signal,[3],9.43
same,binding signal,[4],9.46
same,binding signal,[5],9.41
same,binding signal,[6],9.38
same,binding signal,[7],9.45
same,binding signal,[9],8.25
same,binding signal,[10],7.93
same,binding signal,[11],7.75
same,binding signal,[12],8.01
CCACGCCC [8-mer CCACGCCC],binding signal,[1],9.29
same,binding signal,[2],9.3
same,binding signal,[3],9.26
same,binding signal,[4],9.47
same,binding signal,[5],9.21
same,binding signal,[6],9.32
same,binding signal,[7],9.33
same,binding signal,[8],10.8
same,binding signal,[18],10.9
GTAATAAA [8-mer GTAATAAA],binding signal,[1],12.8
same,binding signal,[2],11.6
same,binding signal,[3],13
same,binding signal,[4],11.5
same,binding signal,[5],12.6
same,binding signal,[6],11.9
same,binding signal,[7],12.7
AGCCGCCG [8-mer AGCCGCCG],binding signal,[1],9.61
same,binding signal,[2],9.27
same,binding signal,[3],9.46
same,binding signal,[4],9.64
same,binding signal,[5],9.45
same,binding signal,[6],9.52
same,binding signal,[7],9.59
same,binding signal,[13],10.1
same,binding signal,[14],10.2
same,binding signal,[15],10
AGGGAGGC [8-mer AGGGAGGC],binding signal,[1],9.38
same,binding signal,[2],9.33
same,binding signal,[3],9.35
same,binding signal,[4],9.5
same,binding signal,[5],9.22
same,binding signal,[6],9.3
same,binding signal,[7],9.33
same,binding signal,[16],9.71
same,binding signal,[17],9.68
same,binding signal,[13],9.91
same,binding signal,[14],9.96
same,binding signal,[15],9.9
CCGGCTTC [8-mer CCGGCTTC],binding signal,[1],9.37
same,binding signal,[2],9.29
same,binding signal,[3],9.38
same,binding signal,[4],9.42
same,binding signal,[5],9.34
same,binding signal,[6],9.37
same,binding signal,[7],9.43
GCCTAGGC [8-mer GCCTAGGC],binding signal,[1],9.41
same,binding signal,[2],9.45
same,binding signal,[3],9.42
same,binding signal,[4],9.89
same,binding signal,[5],9.55
same,binding signal,[6],9.57
same,binding signal,[7],9.52
same,binding signal,[16],9.93
same,binding signal,[17],9.82
same,binding signal,[19],9.72
same,binding signal,[20],9.7
CACCGGCC [8-mer CACCGGCC],binding signal,[1],9.47
same,binding signal,[2],9.45
same,binding signal,[3],9.27
same,binding signal,[4],9.29
same,binding signal,[5],9.43
same,binding signal,[6],9.32
same,binding signal,[7],9.33
same,binding signal,[9],8.05
same,binding signal,[10],7.9
same,binding signal,[11],7.86
same,binding signal,[12],7.93
same,binding signal,[8],10.9
same,binding signal,[18],10.9
GCCCGCAC [8-mer GCCCGCAC],binding signal,[1],9.41
same,binding signal,[2],9.45
same,binding signal,[3],9.27
same,binding signal,[4],9.59
same,binding signal,[5],9.31
same,binding signal,[6],9.41
same,binding signal,[7],9.39
same,binding signal,[8],10.9
same,binding signal,[18],11
GAGGGACC [8-mer GAGGGACC],binding signal,[1],9.62
same,binding signal,[2],9.49
same,binding signal,[3],9.59
same,binding signal,[4],9.42
same,binding signal,[5],9.45
same,binding signal,[6],9.41
same,binding signal,[7],9.53
same,binding signal,[9],8.27
same,binding signal,[10],7.97
same,binding signal,[11],7.94
same,binding signal,[12],8.1
CGGCCACC [8-mer CGGCCACC],binding signal,[1],9.36
same,binding signal,[2],9.26
same,binding signal,[3],9.28
same,binding signal,[4],9.33
same,binding signal,[5],9.24
same,binding signal,[6],9.3
same,binding signal,[7],9.26
same,binding signal,[13],9.83
same,binding signal,[14],9.73
same,binding signal,[15],9.9
AGGGCGGA [8-mer AGGGCGGA],binding signal,[1],9.3
same,binding signal,[2],9.3
same,binding signal,[3],9.25
same,binding signal,[4],9.3
same,binding signal,[5],9.17
same,binding signal,[6],9.21
same,binding signal,[7],9.27
same,binding signal,[9],8.4
same,binding signal,[10],8.07
same,binding signal,[11],7.92
same,binding signal,[12],8.08
